This note sets out measurements from article PMC7228970.

Chains of the proteins cited; added tags and fusions are not shown. Lines headed by an entry give the natural chain unless they say otherwise; changes in a name come on top. A line that says so, or that is headed by a name, gives the form on record, which may keep a tag or linker.
UniProt P21951: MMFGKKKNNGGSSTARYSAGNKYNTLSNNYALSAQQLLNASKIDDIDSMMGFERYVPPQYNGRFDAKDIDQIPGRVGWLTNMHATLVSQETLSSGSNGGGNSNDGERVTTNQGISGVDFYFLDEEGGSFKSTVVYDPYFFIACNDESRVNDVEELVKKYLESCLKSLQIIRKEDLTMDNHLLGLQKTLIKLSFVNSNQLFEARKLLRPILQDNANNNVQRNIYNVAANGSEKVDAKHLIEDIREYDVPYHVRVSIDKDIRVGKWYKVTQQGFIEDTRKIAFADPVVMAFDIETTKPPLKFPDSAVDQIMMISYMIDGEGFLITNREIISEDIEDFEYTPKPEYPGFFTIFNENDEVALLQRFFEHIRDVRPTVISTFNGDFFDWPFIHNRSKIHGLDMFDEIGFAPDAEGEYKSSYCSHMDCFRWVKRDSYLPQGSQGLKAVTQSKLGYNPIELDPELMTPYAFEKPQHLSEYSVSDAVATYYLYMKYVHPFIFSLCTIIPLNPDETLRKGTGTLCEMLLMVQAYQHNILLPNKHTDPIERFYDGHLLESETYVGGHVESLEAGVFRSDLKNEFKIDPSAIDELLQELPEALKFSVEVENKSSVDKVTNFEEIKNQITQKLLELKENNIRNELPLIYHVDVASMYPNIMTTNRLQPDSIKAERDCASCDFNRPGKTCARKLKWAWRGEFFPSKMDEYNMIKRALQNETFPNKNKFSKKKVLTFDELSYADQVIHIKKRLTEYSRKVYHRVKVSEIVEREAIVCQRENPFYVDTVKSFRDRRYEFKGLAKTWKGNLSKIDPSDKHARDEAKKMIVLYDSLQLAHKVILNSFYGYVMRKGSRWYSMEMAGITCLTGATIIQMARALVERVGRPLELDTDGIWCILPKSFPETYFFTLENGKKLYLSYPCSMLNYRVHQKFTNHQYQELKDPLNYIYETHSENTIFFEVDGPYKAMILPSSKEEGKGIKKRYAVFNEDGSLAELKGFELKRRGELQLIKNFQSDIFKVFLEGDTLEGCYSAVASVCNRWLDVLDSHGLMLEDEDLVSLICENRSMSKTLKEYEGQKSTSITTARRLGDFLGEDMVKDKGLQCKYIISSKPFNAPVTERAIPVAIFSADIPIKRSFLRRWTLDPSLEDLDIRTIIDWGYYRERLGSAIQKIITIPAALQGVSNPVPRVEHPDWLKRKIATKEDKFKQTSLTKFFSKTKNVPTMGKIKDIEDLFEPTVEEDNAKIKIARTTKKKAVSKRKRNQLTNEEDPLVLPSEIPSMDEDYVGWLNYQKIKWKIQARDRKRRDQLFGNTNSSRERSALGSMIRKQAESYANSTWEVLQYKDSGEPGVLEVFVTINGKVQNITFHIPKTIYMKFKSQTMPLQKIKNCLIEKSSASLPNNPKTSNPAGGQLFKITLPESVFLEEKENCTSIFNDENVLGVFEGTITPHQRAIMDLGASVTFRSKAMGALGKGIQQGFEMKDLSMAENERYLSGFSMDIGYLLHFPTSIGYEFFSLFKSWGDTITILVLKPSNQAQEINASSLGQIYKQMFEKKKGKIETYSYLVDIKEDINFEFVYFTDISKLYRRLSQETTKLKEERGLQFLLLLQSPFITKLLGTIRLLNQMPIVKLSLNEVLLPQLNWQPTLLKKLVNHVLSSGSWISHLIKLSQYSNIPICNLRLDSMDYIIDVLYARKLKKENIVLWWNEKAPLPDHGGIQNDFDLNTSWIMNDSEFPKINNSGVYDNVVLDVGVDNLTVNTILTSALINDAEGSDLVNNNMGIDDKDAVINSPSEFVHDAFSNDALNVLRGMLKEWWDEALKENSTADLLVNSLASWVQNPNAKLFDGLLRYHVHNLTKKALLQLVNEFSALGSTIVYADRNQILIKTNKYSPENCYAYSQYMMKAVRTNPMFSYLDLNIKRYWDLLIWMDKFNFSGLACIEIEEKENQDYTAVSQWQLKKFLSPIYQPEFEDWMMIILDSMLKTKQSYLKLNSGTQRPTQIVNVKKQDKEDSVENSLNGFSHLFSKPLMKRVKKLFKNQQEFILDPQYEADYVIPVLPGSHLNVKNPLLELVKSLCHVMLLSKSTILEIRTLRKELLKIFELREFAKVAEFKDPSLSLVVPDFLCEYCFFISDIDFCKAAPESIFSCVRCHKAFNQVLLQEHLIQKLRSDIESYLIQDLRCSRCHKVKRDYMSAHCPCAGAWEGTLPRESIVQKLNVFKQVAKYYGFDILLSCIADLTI
HA-tagged Pol2-REL (P21951, form named): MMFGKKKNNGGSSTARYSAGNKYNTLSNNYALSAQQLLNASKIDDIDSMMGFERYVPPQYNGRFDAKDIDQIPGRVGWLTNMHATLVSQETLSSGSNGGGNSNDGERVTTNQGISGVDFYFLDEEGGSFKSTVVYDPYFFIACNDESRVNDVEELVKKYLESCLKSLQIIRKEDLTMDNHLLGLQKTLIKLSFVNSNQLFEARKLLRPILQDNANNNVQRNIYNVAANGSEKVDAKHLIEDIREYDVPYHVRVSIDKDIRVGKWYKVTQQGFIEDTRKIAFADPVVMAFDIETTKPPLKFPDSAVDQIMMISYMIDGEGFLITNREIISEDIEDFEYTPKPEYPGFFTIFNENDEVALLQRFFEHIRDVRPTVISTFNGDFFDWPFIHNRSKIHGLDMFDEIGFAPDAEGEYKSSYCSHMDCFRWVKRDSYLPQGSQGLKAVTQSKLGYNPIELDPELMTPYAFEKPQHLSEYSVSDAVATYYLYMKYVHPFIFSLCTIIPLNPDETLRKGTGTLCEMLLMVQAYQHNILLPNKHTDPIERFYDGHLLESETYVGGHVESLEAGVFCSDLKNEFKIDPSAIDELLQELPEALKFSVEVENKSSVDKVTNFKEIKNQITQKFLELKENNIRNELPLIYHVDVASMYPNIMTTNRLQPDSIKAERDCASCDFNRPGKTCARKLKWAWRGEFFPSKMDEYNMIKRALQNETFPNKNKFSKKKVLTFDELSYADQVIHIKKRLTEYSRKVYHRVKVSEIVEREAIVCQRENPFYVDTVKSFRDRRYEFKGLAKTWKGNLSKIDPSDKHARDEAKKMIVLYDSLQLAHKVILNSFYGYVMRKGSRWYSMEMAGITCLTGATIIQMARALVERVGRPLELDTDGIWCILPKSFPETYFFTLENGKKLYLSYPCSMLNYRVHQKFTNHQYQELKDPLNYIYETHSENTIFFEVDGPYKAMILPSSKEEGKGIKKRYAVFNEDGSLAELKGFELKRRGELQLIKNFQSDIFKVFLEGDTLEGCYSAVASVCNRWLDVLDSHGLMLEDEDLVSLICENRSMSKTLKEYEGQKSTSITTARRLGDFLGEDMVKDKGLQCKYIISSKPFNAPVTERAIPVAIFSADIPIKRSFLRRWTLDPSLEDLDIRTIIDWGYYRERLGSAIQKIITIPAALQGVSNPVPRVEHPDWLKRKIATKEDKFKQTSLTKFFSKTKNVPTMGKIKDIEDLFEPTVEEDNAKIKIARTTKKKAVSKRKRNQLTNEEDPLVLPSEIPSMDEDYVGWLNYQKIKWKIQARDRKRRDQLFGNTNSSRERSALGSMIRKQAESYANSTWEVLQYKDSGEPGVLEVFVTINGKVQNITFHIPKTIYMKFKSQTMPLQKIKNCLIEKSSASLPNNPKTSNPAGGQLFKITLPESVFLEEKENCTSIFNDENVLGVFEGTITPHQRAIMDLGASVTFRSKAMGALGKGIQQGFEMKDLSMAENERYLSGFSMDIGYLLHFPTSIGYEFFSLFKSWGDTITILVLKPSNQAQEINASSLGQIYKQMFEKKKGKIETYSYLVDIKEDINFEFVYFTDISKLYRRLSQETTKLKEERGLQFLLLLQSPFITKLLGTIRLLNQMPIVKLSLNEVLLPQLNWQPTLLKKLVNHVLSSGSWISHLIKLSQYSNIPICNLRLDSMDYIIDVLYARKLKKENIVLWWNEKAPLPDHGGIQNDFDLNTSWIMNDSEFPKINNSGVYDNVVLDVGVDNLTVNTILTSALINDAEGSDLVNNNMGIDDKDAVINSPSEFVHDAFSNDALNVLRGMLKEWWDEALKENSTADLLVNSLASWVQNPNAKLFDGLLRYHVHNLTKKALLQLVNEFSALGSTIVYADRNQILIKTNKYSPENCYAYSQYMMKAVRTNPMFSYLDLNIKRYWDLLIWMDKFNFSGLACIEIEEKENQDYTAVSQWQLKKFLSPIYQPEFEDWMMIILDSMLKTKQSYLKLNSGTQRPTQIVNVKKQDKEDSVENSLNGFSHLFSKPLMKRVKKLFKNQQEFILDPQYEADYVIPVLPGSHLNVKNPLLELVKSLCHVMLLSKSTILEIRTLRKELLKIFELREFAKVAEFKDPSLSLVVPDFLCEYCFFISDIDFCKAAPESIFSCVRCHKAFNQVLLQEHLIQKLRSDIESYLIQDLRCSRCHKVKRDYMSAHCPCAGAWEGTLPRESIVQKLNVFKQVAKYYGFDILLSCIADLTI

Experiment [1] concerns the target T1, Flag-tagged Sld2 (budding yeast) (UniProt P34252).
T1 sequence: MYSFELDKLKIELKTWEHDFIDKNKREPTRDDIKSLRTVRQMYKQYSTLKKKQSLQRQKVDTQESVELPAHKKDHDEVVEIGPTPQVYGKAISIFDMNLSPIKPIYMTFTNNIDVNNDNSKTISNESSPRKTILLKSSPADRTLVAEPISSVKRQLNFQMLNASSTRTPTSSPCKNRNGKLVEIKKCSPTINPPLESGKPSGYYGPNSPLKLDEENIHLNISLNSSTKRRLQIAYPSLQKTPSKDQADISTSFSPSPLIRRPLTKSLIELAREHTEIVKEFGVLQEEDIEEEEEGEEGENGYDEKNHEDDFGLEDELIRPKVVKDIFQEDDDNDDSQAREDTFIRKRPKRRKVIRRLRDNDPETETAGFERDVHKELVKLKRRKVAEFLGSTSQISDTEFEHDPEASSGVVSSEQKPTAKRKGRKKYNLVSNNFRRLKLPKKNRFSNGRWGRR
The experiment can be described thus: co-IP; Flag-tagged Sld2 immunoprecipitated from Benzonase-treated whole-cell extract of S phase cells after mild cross-linking (1% formaldehyde, 20 min); 50 mM HEPES-KOH pH 7.5, 140 mM NaCl, 1% TritonX-100; wild-type and pol2-REL cells, with or without Dpb11 overexpression; western blot.

The target of experiment [2] is T1, Flag-tagged Sld2 (budding yeast). The experiment can be described thus: co-IP; as a3, but G1 phase cells.
The target in experiment [3] is HA-tagged Pol2-REL (budding yeast) (UniProt P21951). The experiment can be described thus: co-IP; HA-tagged Pol2 (wild type or REL) immunoprecipitated, done as the Sld2 IP (mild formaldehyde cross-linking, Benzonase-treated whole-cell extract); G1 or S phase cells at 24 °C, or 37 °C with galactose-induced Dpb11 overexpression; western blot.
In experiment [4] the target is HA-tagged Pol2 (wild type) (budding yeast) (UniProt P21951). Described as above.

These are yes or no findings as the source states them, for the method shown. In cells and extracts the contact can be indirect. Some entries that bind do so weakly or less than the wild type. For some assays here: Tags and fused reporters may be left off the sequences shown.

Consider “HA-tagged Pol2-REL (from UniProt P21951 1-2222)”, for which, in experiment [1], the binding result was “binds weakly”.

As for “HA-tagged Pol2 (wild type) (from UniProt P21951 1-2222)”, the figures for the binding result in experiment [1] and in experiment [2] were “binds” and “no binding (condition: G1 phase cells)”, respectively.

B1: Dpb2 (protein, UniProt P24482 1-689)
chain: MFGSGNVLPVKIQPPLLRPLAYRVLSRKYGLSIKSDGLSALAEFVGTNIGANWRQGPATIKFLEQFAAVWKQQERGLFIDQSGVKEVIQEMKEREKVEWSHEHPIQHEENILGRTDDDENNSDDEMPIAADSSLQNVSLSSPMRQPTERDEYKQPFKPESSKALDWRDYFKVINASQQQRFSYNPHKMQFIFVPNKKQNGLGGIAGFLPDIEDKVQMFLTRYYLTNDRVMRNENFQNSDMFNPLSSMVSLQNELSNTNRQQQSSSMSITPIKNLLGRDAQNFLLLGLLNKNFKGNWSLEDPSGSVEIDISQTIPTQGHYYVPGCMVLVEGIYYSVGNKFHVTSMTLPPGERREITLETIGNLDLLGIHGISNNNFIARLDKDLKIRLHLLEKELTDHKFVILGANLFLDDLKIMTALSKILQKLNDDPPTLLIWQGSFTSVPVFASMSSRNISSSTQFKNNFDALATLLSRFDNLTENTTMIFIPGPNDLWGSMVSLGASGTLPQDPIPSAFTKKINKVCKNVVWSSNPTRIAYLSQEIVIFRDDLSGRFKRHRLEFPFNESEDVYTENDNMMSKDTDIVPIDELVKEPDQLPQKVQETRKLVKTILDQGHLSPFLDSLRPISWDLDHTLTLCPIPSTMVLCDTTSAQFDLTYNGCKVINPGSFIHNRRARYMEYVPSSKKTIQEEIYI
Take B1: the binding result in experiment [3] and in experiment [4] was “binds” each time.

B2: Psf1 (protein, UniProt Q12488 1-208)
chain: MYGDLGNKLVLEAKRTKQLYARSNQDVNLPMYHEDIIRNILKEVSNLRKNTEYLKEQQQLGMLDDKVAKCQYFVTLLCMERNKRCLLAYQRLRTDILDSMAWNNNGLDLMSSITFSQQDTNNLSHQEQEYLKEYCDLITDLKSGDLVDIDLSGSLVPPSDVFIDVRVLKDAGEIQTEYGVFNLIKDSQFFVRQSDVERLIQQGYLQKI
On to B2, for which the binding result is given as “binds” in experiment [1] and “no binding (condition: G1 phase cells)” in experiment [2].

B3: Dpb11 (protein, UniProt P47027 1-764)
chain: MKPFQGITFCPTAINNEILAKKISKKIIKLGGIFSKDLTRQVNVLVVGSTTNTNKFKFAVKHRFDIIFIDIQAIDDIYQLWLSGENILPDSNTATMTGSTYEMLKILYRRFSFKYLHNFNIFIGRITDTNITSIDSLVRSIKKLGCSSYNYQNFVIKDTSSHNDDDDQGQNGQISIFVTDTLLGARVNAAIEQNIPIVHFKWILDCQKRSALLPYDPYYLLPNIKDLPYDSIGSNSCDCWDKINTTFPTNIDAQSSLQRQQSSSTLTPSLPKTSSLLNKFKPKGEKIWDKAMSLQQHSKTNFSVLGQSPLSINNKQEDLSDNSTLIFKNCAFIIHHIFPGNHRSILTKIVVQNGGKIETSYLSGIYDHSYYIIPSNKALDSFNDLPEIIDDNDGIVTEFFIERCLYYQKLLHPIDLWSKPFLSTIEFQVSSSSKLLHHEFSSSPFLNVTITGFSGVELLHLTKVLNLLKPMGINYVEYLNKSTDILLINLAALPSIPKTHPLWSNEFSDLFTQFCINNNNDDPGDNNRKDFQNNSILRNSMKRKIEYIKKFHSIPVVTPAFIFKLLSAASGENNEIFLNNIKWCIICPRGHKDDFKCKIKKPYYTSISSEKKYQNNDPKIDKTILLKRNNSSLSEHSMKDTKNELLQKIRETDSGRKKRSVSSSIMDVSSERQMPDTKRIKLESLPKNFVPKQIKRTTSWGTIMSENVPTEQPTAISNPEEIPRTEEVSHTQVTYGSIQDKKRTASLEKPMRRQTRNQTKELDS
As to B3, the binding entry in experiment [3] is given as “binds”; in experiment [4], “binds”; in experiment [1], “binds”; in experiment [2], “no binding (condition: G1 phase cells)”.
